Experimental data published in PMC4336329 (PLoS ONE, 2015).
Hit rate of the full screen: of about 310,000 compounds, about 2,200 (0.71%) showed an effect of 50% or more. Effects have a minus sign here. This is one part of the list.

What follows are compounds tested against human ether-à-go-go-related gene (hERG) potassium channel (human, UniProt Q12809) (assay: primary screen, population patch clamp on CHO cells stably expressing hERG).
Chain of human ether-à-go-go-related gene (hERG) potassium channel (Q12809 whole entry, looked up): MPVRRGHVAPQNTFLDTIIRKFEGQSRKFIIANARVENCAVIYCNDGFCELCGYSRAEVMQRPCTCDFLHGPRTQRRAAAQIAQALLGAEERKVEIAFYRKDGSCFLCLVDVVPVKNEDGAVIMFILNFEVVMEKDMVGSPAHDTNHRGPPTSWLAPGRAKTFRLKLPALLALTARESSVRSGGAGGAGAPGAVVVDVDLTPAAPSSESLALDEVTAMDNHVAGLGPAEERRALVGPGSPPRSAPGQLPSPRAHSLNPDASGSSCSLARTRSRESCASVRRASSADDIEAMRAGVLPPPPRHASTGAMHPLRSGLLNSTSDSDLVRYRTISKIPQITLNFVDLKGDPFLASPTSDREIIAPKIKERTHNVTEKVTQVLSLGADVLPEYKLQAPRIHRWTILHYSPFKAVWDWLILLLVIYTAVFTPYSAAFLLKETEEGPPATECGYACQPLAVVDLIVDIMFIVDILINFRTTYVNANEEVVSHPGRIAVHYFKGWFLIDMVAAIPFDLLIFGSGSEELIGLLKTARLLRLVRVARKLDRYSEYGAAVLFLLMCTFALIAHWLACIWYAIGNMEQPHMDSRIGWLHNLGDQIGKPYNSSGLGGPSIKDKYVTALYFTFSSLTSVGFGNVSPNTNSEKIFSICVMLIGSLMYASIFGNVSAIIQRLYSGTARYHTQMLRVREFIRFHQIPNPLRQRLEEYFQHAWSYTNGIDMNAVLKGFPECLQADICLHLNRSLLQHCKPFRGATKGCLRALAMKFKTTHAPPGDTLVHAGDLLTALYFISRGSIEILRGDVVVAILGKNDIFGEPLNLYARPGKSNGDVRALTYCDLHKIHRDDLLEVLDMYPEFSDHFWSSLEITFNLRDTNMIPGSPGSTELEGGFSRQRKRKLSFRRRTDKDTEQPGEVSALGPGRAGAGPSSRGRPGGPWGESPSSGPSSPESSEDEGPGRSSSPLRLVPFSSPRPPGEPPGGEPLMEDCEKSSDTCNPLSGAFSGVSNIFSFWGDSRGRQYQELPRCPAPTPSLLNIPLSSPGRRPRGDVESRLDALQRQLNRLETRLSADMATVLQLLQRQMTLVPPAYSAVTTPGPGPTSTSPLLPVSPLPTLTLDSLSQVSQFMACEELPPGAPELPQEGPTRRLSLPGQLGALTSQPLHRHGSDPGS
With `COC(=O)c1ccccc1NC(=O)Cn1nc(C(F)(F)F)c2c1CCC2` the “hERG current change (%, negative = inhibition) at 1uM” value was -10.6%.
`CC(=O)N/C(=C\c1ccccc1)C(=O)Nc1ccccc1C` was tested, and the “hERG current change (%, negative = inhibition) at 1uM” value was 16.8%.
In the case of `Cc1ccc(C(=O)NCC(=O)OCC(=O)Nc2ccccc2C#N)s1`, the “hERG current change (%, negative = inhibition) at 1uM” value was 11.3%.
In the case of `CC(c1ccco1)N(C(=O)c1cccc(Br)c1)c1ccccn1` (stereo not drawn), the “hERG current change (%, negative = inhibition) at 1uM” value was 0.194%.
In the case of `C=CCOc1cccc(/C=C\c2nc(O)c([N+](=O)[O-])c(=O)[nH]2)c1`, the “hERG current change (%, negative = inhibition) at 1uM” value was 15%.
For `CC(c1nnc(SCC(=O)Nc2sccc2C#N)n1-c1ccc(Cl)cc1)N(C)C` (stereo not drawn), the “hERG current change (%, negative = inhibition) at 1uM” value was 8.41%.
In the case of `CCn1c(C)nc2cc(C(=O)N/N=C(\C)c3ccccc3O)ccc21`, the “hERG current change (%, negative = inhibition) at 1uM” value was 12.9%.
With `COCCCNC(=O)CCn1c(=O)c2ccccc2n(CC(=O)Nc2ccccc2C)c1=O` the “hERG current change (%, negative = inhibition) at 1uM” value was 12.3%.
With `Brc1cccc(-c2nc(-c3ccncc3)no2)c1` the “hERG current change (%, negative = inhibition) at 1uM” value was 12.2%.
`CN(C(=O)CSc1nnc(-c2ccc(OC(F)F)cc2)n1N)C1CCS(=O)(=O)C1` (stereo not drawn) was tested, and the “hERG current change (%, negative = inhibition) at 1uM” value was 14.3%.
With `O=C1C(Cl)=C(Nc2ccc3cn[nH]c3c2)C(=O)c2ccccc21` the “hERG current change (%, negative = inhibition) at 1uM” value was 18.1%.
`NC(=O)c1ccc(NC(=O)COC(=O)CNC(=O)c2sc3ccccc3c2Cl)cc1` was tested, and the “hERG current change (%, negative = inhibition) at 1uM” value was 1.09%.
With `O=C(c1ccco1)N1CCN(S(=O)(=O)c2ccc3[nH]c(=O)oc3c2)CC1` the “hERG current change (%, negative = inhibition) at 1uM” value was -0.805%.
With `CSc1ccc(CN(C)C(C)C(=O)NCC2CCCCC2)cc1` (stereo not drawn) the “hERG current change (%, negative = inhibition) at 1uM” value was 11.8%.
In the case of `COC(=O)c1ccc(C)c(NC(=O)CCc2cc(OC)c(OC)c(OC)c2)c1`, the “hERG current change (%, negative = inhibition) at 1uM” value was 3.37%.
With `CN(C)CCCOC(=O)Cc1ccc(Cl)cc1.Cl` the “hERG current change (%, negative = inhibition) at 1uM” value was -11.2%.
For `CCN(CC)C1=NS(=O)(=O)c2cc([N+](=O)[O-])ccc21`, the “hERG current change (%, negative = inhibition) at 1uM” value was -14.3%.
`O=C(C1CC(=O)N(c2ccc3c(c2)OCCO3)C1)N1CCN(Cc2ccccc2)CC1` (stereo not drawn) was tested, and the “hERG current change (%, negative = inhibition) at 1uM” value was 0.891%.
For `NS(=O)(=O)c1cccc2cccnc12`, the “hERG current change (%, negative = inhibition) at 1uM” value was 10.6%.
`O=C(NCc1ccco1)c1noc2c1CCCCC2` was tested, and the “hERG current change (%, negative = inhibition) at 1uM” value was 12.7%.
In the case of `OCc1cn(-c2ccccc2)nc1-c1ccco1`, the “hERG current change (%, negative = inhibition) at 1uM” value was 15.1%.
In the case of `CCOc1ccc(CCNC(=O)Cn2ccc3cc(S(=O)(=O)N4CCCC4)ccc32)cc1`, the “hERG current change (%, negative = inhibition) at 1uM” value was 16%.
`Cc1c([N+](=O)[O-])cc(C(=O)Nc2ccc(Cc3ccncc3)cc2)cc1[N+](=O)[O-]` was tested, and the “hERG current change (%, negative = inhibition) at 1uM” value was -9.28%.
For `CCCCCn1c(N)c(-c2nc3ccccc3o2)c2c([N+](=O)[O-])nn(CC)c(=O)c21`, the “hERG current change (%, negative = inhibition) at 1uM” value was 10.9%.
`COc1ccccc1N1CCN(S(=O)(=O)c2cn(C)nc2C)CC1` was tested, and the “hERG current change (%, negative = inhibition) at 1uM” value was 7.06%.
With `CN(/N=C/c1cccc(Br)c1)C1=NS(=O)(=O)c2ccccc21` the “hERG current change (%, negative = inhibition) at 1uM” value was 6.32%.
For `CCN=C1SC(CC(=O)NCc2ccccc2)C(=O)N1CC` (stereo not drawn), the “hERG current change (%, negative = inhibition) at 1uM” value was 11.9%.
`CCn1cc([N+](=O)[O-])c(C(=O)Nc2ccc3c(c2)OCCO3)n1` was tested, and the “hERG current change (%, negative = inhibition) at 1uM” value was -0.934%.
In the case of `Cc1cc(NC(=O)CSc2nnc(Cc3ccccc3)o2)no1`, the “hERG current change (%, negative = inhibition) at 1uM” value was 13.3%.
For `COc1cccc(CN(C(=O)/C=C/c2ccco2)C2CCS(=O)(=O)C2)c1` (stereo not drawn), the “hERG current change (%, negative = inhibition) at 1uM” value was 4.13%.
With `CCOC(=O)C1(Cc2cccc(OC)c2)CCCN(C(=O)CCSC)C1` (stereo not drawn) the “hERG current change (%, negative = inhibition) at 1uM” value was 7.66%.
For `Cn1c(SCc2nn[nH]n2)nc2c1c(=O)n(Cc1ccccc1Cl)c(=O)n2C`, the “hERG current change (%, negative = inhibition) at 1uM” value was 4.36%.
In the case of `Cc1cc(C)cc(NC(=S)NCCCN2CCOCC2)c1`, the “hERG current change (%, negative = inhibition) at 1uM” value was -1.09%.
With `Cc1nc(C)n(CCNS(=O)(=O)c2ccccc2)n1` the “hERG current change (%, negative = inhibition) at 1uM” value was 16.2%.
In the case of `COc1cc(NC(=O)COc2cc(O)c3c(c2)OC(C)(C)CC3=O)cc(OC)c1`, the “hERG current change (%, negative = inhibition) at 1uM” value was -7.91%.
In the case of `C[C@@H](NCCc1ccc(O)cc1)[C@@H](O)c1ccc(O)cc1.Cl`, the “hERG current change (%, negative = inhibition) at 1uM” value was 12%.
In the case of `COC(=O)c1ccc(COc2ccc3c(C)c(C)c(=O)oc3c2)o1`, the “hERG current change (%, negative = inhibition) at 1uM” value was -0.357%.
`COc1ccc(N(C(C)C(=O)NN=C2CCCCCCC2)S(C)(=O)=O)cc1` (stereo not drawn) was tested, and the “hERG current change (%, negative = inhibition) at 1uM” value was 3.39%.
`CC(C)CN1CCN(Cc2ccc(CN3CCCCC3)s2)CC1CCO` (stereo not drawn) was tested, and the “hERG current change (%, negative = inhibition) at 1uM” value was 15.3%.
In the case of `CN(C)CCN1C(=O)C2C(C(=O)Nc3cc(Cl)cc(Cl)c3)C3C=CC2(O3)C1C(=O)NC1CCCCC1` (stereo not drawn), the “hERG current change (%, negative = inhibition) at 1uM” value was 0.886%.
With `Cc1ccc(-c2nc(CN(CC3CCC3)CC3CCCO3)c(C)o2)s1` (stereo not drawn) the “hERG current change (%, negative = inhibition) at 1uM” value was -1.43%.
With `Cc1ccc(S(=O)(=O)NCC(=O)N(CC(=O)NCC2CCCO2)Cc2ccc(Cl)cc2)cc1` (stereo not drawn) the “hERG current change (%, negative = inhibition) at 1uM” value was -1.62%.
In the case of `Cc1ccc(NC(=O)c2[nH]cnc2C(=O)NN)cc1`, the “hERG current change (%, negative = inhibition) at 1uM” value was 6.16%.
For `CCCCNc1nnc(SCC(=O)c2c(N)n(CCC)c(=O)[nH]c2=O)s1`, the “hERG current change (%, negative = inhibition) at 1uM” value was 6.04%.
For `CN1CCN(C(=O)CCCN2C(=O)/C(=C/c3ccc(Cl)cc3)SC2=S)CC1`, the “hERG current change (%, negative = inhibition) at 1uM” value was 2.73%.
